Our source for the EC50 values is patent US9598459B2, “Pharmaceutical compositions and methods” (priority 2015, dated 2017).

SMILES strings stand for the structures. Like-named read-outs stand apart in the source and are kept apart here.

This test deals with Tacaribe TRVL11573. Format: cell-based, Tacaribe virus. The conditions noted are these: TRVL 11573, Vero.

In general, EC50 refers to the concentration giving half of the maximal effect. High values mean a less potent agent, low ones a more potent agent. `CC#CC1(O)CCC2C3CCC4=CC(=NNC(N)=S)CCC4=C3C(c3ccc4c(c3)OCO4)CC21C.CC#CC1(O)CCC2C3CCC4=CC(=O)CCC4=C3C(c3ccc4c(c3)OCO4)CC21C.CC(C)=O.CCO.O` (stereo not drawn) [PT155, ⅓ (11β,17β)-17-Hydroxy-11-[3,4-(methylenedioxy)phenyl]-17-(1-propyn-1-yl)estra-4,9-dien-3-one (ORG34517)×(2EZ)-2-{(11β,17β)-17-hydroxy-11-[3,4-(methylenedioxy)phenyl]-17-(1-propyn-1-yl)estra-4,9-dien-3-ylidene}hydrazinecarbothioamide [71.8% (E), 28.2% (Z)] hemihydrate×¾% acetone× ⅛ ethanol] came in with an EC50 (Neutral red) above 3.8 µg/mL and an EC50 (Visual) above 5.9 µg/mL.
